From publication PMC4434814 come the findings set out here.

Amino acid sequences for entries named in this document (tags omitted).
UniProt P60953: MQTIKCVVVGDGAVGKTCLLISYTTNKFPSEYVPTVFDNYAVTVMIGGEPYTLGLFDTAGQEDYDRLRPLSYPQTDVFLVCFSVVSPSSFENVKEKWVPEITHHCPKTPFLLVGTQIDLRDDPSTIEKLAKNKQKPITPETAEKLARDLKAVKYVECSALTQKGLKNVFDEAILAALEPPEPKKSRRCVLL
UniProt Q9H4E5: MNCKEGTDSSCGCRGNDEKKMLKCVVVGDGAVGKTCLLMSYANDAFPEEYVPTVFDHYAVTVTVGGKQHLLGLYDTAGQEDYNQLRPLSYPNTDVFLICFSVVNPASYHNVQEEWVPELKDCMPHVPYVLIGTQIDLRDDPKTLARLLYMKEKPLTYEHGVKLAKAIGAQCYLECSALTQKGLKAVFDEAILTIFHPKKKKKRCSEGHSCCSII
UniProt Q9BZ29: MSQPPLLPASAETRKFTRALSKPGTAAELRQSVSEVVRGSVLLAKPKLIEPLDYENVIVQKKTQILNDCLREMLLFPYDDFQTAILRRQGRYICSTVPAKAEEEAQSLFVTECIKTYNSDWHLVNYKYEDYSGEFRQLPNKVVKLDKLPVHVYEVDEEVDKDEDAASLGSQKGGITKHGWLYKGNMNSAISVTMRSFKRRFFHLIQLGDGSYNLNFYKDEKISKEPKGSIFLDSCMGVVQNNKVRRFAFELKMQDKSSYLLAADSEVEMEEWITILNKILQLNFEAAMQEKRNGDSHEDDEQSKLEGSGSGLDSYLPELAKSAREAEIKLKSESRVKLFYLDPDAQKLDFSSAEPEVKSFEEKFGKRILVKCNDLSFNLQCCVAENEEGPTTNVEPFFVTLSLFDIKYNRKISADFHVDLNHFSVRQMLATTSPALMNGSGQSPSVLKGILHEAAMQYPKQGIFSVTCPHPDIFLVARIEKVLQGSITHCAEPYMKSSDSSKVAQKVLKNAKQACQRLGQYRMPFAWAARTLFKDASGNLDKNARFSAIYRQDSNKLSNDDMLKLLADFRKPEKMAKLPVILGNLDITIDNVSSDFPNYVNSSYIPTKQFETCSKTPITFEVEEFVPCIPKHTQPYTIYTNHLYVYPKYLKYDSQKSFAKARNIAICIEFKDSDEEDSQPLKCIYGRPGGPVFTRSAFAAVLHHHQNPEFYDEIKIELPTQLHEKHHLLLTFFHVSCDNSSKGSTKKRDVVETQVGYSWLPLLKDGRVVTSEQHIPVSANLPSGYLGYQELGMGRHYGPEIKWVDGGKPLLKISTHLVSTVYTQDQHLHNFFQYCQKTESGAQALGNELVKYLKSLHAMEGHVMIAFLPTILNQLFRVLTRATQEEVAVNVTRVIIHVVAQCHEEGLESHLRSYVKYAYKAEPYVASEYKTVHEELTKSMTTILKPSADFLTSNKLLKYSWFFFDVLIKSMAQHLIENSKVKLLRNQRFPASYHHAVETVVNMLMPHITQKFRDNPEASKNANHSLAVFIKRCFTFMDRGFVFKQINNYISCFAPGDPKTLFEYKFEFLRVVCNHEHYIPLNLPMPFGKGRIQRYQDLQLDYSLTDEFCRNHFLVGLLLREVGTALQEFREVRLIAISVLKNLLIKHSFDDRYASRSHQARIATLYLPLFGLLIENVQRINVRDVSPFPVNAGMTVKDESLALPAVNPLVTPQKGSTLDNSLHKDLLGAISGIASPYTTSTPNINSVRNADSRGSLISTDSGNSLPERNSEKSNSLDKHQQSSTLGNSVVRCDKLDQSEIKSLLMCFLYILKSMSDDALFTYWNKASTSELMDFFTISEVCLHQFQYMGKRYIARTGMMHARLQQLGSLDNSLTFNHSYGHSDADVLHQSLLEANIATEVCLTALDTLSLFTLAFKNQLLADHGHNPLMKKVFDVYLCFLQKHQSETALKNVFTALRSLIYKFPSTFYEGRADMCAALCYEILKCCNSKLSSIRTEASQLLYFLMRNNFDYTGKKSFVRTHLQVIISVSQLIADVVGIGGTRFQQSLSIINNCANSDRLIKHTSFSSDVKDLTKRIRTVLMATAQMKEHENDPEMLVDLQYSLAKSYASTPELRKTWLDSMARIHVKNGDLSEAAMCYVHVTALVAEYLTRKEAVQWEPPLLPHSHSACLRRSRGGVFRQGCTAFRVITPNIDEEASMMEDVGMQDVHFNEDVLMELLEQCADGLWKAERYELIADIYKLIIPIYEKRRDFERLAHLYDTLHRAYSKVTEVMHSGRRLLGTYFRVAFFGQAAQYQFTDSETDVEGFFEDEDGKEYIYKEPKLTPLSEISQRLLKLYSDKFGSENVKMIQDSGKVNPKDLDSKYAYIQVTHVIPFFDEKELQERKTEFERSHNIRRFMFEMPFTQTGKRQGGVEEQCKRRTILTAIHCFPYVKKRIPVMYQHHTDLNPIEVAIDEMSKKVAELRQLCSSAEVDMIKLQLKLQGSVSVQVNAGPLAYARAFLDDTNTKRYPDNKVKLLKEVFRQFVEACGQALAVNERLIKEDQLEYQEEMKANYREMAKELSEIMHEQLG
UniProt Q5JSL3: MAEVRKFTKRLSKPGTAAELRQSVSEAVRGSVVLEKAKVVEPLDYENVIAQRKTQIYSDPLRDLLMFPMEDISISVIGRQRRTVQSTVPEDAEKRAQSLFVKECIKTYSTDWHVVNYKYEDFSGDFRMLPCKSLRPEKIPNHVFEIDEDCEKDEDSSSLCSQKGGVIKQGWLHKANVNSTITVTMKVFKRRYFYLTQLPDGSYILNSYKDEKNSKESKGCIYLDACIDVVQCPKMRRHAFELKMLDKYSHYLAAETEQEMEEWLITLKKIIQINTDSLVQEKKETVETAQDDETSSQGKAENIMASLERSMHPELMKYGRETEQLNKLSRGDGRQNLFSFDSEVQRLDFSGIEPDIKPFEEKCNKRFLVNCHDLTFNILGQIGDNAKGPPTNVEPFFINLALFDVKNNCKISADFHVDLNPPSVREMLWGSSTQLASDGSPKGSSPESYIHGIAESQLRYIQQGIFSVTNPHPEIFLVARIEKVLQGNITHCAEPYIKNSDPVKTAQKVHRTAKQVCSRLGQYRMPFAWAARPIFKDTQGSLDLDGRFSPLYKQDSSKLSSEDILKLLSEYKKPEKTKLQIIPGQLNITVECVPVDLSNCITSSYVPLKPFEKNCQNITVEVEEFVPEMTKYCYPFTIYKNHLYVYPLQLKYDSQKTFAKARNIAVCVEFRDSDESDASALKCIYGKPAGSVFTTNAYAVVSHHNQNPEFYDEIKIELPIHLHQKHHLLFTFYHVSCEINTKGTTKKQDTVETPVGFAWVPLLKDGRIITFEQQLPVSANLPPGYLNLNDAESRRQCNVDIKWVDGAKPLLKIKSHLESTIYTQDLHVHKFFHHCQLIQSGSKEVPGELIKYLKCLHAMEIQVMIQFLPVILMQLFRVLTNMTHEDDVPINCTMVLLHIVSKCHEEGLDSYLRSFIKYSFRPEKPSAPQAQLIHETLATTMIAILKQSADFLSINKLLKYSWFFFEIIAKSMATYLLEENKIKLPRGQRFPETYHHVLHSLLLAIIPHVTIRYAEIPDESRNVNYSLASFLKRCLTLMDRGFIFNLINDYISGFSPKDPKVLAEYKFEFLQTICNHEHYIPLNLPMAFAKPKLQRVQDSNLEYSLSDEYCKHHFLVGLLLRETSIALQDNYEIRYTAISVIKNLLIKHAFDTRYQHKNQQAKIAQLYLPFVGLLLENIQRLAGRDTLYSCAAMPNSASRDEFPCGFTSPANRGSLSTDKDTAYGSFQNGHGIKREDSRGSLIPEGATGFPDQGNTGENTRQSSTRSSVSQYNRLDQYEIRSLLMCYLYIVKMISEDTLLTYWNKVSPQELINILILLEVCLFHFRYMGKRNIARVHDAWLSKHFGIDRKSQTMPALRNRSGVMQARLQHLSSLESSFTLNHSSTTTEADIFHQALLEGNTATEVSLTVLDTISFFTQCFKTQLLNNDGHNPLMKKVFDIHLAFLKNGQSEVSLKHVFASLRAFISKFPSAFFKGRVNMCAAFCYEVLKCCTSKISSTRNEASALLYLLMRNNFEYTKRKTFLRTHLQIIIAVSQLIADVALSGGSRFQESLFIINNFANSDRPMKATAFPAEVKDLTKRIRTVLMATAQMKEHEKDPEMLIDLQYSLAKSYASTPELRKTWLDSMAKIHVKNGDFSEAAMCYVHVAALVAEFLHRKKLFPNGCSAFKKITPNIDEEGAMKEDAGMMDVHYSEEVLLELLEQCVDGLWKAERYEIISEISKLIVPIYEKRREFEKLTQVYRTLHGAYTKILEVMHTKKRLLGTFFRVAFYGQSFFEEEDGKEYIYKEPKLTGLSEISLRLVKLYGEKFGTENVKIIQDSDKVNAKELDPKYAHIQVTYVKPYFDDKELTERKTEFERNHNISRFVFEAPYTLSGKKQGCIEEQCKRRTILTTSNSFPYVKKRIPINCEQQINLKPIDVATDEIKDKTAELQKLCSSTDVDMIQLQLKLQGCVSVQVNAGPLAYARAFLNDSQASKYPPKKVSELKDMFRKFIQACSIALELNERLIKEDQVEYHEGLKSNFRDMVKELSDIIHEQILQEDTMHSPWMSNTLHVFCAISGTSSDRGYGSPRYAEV

These are yes or no findings as the source states them, for the method shown. Binding seen in cells or lysates may run through a third protein. Some results given as binding are weak or reduced against the parent protein; the word gives no strength. For some assays here: Tags and fused reporters may be left off the sequences shown.

In assay [1] the target is GST-bound Cdc42 (UniProt P60953). The assay is described as follows: condition: only GTP-loaded GTPase (1 mM GTP, 10 mM MgCl2); pull-down; as a1, but GST-GTPase GTP-loaded (Solution C: 1 mM GTP and 10 mM MgCl2 instead of EDTA); only the target purified.
Assay [2] concerns the target T1, GST-bound RhoD (UniProt O00212).
T1 sequence: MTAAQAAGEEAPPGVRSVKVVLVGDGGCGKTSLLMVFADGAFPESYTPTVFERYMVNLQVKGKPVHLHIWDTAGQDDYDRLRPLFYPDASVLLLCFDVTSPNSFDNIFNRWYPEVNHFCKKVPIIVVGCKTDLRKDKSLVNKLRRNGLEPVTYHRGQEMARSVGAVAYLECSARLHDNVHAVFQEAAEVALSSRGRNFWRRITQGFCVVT
The experiment in a line: pull-down; GST-GTPase on glutathione-sepharose 4B beads (200 µg), nucleotide-depleted (Solution A: 20 mM Tris-Cl pH 7.5, 50 mM NaCl, 10 mM EDTA, 1 mM DTT, 0.1% Triton X-100, 5% glycerol); total protein extracts of transfected 293T cells added, 4°C overnight; immunoblot with HA or FLAG antibodies; only the target purified. (Immunoblotting shows a protein as a band on a membrane.)

The target of assay [3] is GST-bound Cdc42 (UniProt P60953). Described as above.
For assay [4] the target is unchanged. The assay is described as follows: condition: only GDP-loaded GTPase (1 mM GDP, 10 mM MgCl2); pull-down; as a1, but GST-GTPase GDP-loaded (Solution B: 1 mM GDP and 10 mM MgCl2 instead of EDTA); only the target purified.
The target in assay [5] is GST-bound RhoJ (UniProt Q9H4E5). The experiment in a line: pull-down; GST-GTPase on glutathione-sepharose 4B beads (200 µg), nucleotide-depleted (Solution A: 20 mM Tris-Cl pH 7.5, 50 mM NaCl, 10 mM EDTA, 1 mM DTT, 0.1% Triton X-100, 5% glycerol); total protein extracts of transfected 293T cells added, 4°C overnight; immunoblot with HA or FLAG antibodies; only the target purified.

Turning to FLAG-Dock9 (from UniProt Q9BZ29 1-2069), the binding entry in assay [1] is recorded as “no binding”; in assay [2] it was “binds weakly”; in assay [3], “binds”; in assay [4], “no binding”.
Regarding HA-Dock11 (from UniProt Q5JSL3 1-2073), the binding entry is reported as “no binding” in assay [1], “binds weakly” in assay [5], “binds” in assay [3] and “no binding” in assay [4].
